According to publication PMC11034981:
No constants are given. Whether binding was seen depends on the method and setting. In cells and extracts the contact can be indirect. Some binding calls cover weakened binding; strength is not graded here. Blank lines part the entries; values can stand above or below the molecule they belong to.

By UniProt entry, the sequences of proteins in these tests, tags left out. Where a name states a change or a piece, a line headed by the entry shows the natural chain unless it says otherwise. Chains listed by the source or under a name are the forms on record and can include a tag or linker.
Orb2A (Q9VSR3, form named): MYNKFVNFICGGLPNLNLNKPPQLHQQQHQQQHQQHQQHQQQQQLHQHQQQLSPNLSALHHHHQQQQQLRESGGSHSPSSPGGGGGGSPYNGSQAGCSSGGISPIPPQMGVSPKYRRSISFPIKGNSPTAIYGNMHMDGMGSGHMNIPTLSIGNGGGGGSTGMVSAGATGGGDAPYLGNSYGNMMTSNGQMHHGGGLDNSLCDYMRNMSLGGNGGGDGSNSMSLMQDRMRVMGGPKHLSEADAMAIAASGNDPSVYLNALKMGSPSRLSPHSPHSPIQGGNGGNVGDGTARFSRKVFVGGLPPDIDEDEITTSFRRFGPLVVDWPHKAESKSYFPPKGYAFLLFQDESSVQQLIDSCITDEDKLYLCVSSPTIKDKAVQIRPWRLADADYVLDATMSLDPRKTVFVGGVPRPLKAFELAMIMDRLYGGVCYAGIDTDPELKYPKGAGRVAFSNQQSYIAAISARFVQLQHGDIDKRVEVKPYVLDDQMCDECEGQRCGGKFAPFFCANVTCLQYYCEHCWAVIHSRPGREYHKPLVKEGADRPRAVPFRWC
UniProt Q24133: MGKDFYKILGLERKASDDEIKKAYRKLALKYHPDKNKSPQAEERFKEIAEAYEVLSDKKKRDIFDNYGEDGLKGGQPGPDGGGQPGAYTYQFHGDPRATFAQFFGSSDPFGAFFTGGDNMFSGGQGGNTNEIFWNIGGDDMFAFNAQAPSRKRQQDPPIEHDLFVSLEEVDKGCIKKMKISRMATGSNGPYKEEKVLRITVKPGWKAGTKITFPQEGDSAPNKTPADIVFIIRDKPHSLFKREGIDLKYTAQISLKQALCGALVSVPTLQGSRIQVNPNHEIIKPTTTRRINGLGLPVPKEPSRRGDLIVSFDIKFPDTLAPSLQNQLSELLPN
UniProt Q9VTJ8: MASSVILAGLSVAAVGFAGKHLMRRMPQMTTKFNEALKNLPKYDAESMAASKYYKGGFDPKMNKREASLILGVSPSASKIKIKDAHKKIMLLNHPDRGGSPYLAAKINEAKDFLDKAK
UniProt P82910: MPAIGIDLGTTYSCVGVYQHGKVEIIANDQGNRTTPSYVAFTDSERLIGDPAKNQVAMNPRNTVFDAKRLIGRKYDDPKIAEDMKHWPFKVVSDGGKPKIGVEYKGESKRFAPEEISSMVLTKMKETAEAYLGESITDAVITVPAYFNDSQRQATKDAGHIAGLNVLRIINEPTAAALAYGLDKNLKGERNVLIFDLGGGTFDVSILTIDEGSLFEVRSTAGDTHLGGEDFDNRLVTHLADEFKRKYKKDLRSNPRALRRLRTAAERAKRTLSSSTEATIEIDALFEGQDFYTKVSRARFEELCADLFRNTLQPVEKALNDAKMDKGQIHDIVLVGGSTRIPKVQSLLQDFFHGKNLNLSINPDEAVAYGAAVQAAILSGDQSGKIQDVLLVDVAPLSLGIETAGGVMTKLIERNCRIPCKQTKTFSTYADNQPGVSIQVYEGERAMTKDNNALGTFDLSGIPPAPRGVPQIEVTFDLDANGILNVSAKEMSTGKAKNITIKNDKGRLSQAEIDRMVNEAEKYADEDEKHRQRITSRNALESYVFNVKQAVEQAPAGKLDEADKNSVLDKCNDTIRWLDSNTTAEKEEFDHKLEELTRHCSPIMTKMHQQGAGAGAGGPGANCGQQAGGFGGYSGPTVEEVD
UniProt O75190: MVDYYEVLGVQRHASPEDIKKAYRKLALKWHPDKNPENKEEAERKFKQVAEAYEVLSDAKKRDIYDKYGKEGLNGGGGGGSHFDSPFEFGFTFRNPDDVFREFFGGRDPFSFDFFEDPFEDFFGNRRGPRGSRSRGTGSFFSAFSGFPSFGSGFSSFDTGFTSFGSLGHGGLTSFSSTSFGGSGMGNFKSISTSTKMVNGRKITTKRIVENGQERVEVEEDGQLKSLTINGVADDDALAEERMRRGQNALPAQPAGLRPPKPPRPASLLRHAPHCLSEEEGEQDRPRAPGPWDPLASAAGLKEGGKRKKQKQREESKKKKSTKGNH
UniProt P11147: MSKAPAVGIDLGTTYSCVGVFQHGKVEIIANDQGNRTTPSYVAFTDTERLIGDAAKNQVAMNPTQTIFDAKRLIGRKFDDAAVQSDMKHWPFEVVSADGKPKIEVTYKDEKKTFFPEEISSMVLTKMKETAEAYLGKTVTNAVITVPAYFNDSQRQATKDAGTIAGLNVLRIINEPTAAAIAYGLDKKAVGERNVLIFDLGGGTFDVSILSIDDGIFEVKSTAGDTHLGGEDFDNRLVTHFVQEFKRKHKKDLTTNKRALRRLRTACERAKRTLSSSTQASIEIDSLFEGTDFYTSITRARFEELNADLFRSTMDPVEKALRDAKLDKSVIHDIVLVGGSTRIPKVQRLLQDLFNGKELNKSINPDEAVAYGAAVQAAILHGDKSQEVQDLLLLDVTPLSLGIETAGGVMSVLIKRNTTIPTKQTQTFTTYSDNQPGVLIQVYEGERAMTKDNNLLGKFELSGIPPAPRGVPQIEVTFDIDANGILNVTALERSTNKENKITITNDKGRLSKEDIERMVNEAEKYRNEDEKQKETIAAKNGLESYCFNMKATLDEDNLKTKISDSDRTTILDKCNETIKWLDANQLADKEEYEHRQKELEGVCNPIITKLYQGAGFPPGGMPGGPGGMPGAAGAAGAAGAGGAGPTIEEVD

Tests used:
[1] = biological target: Orb2A (Drosophila) (UniProt Q9VSR3); assay: co-IP; S2 cells cotransfected with untagged Orb2A (or Orb2B) and an HA-tagged Hsp40 or Flag-tagged Hsp70; lysate (150 mM NaCl, 50 mM Tris, 1% NP40) with anti-Orb2 antibody and Protein-A beads, 4°C; blot with anti-HA or anti-Flag; control IP with beads only
[2] = biological target: T1, human CPEB2 (human) (UniProt Q7Z5Q1); assay: co-IP; HEK cells with hCPEB2 and hDnaJB6; immunoprecipitation with anti-GFP (GFP-Trap beads), blot with anti-Flag
T1 sequence: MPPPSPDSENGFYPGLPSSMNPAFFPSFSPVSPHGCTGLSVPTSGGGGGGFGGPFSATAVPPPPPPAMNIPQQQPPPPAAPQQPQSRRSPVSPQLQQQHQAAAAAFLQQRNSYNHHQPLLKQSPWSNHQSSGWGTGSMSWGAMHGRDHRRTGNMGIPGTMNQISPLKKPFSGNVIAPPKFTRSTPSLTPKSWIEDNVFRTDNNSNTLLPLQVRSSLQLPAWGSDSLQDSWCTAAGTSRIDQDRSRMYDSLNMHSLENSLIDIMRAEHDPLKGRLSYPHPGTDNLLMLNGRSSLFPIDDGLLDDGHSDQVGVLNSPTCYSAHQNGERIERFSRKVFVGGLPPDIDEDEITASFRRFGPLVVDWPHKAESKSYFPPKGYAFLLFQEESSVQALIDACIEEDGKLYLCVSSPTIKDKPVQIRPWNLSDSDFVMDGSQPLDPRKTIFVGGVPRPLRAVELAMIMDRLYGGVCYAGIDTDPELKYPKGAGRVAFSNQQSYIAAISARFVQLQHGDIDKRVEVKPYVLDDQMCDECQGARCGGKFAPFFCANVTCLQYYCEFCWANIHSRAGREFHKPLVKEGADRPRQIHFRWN

Molecule: DnaJ1-HA (from UniProt Q24133 1-334)
binding [1]: no binding

Molecule: CG7394 (from UniProt Q9VTJ8 1-118)
binding [1]: no binding

B1: CSP (protein, UniProt Q03751 1-249)
chain: MSAPGMDKRKLSTSGDSLYEILGLPKTATGDDIKKTYRKLALKYHPDKNPDNVDAADKFKEVNRAHSILSDQTKRNIYDNYGSLGLYIAEQFGEENVNAYFVVTSPAVKAVVICCAVITGCCCCCCCCCCCNFCCGKFKPPVNESHDQYSHLNRPDGNREGNDMPTHLGQPPRLEDVDLDDVNLGAGGAPVTSQPREQAGGQPVFAMPPPSGAVGVNPFTGAPVAANENTSLNTTEQTTYTPDMVNQKY
binding [1]: no binding

B2: CG4164 (protein, UniProt Q9VPQ2 23-354)
chain: GRDFYKILNVKKNANTNEVKKAYRRLAKELHPDKNKDDPDASTKFQDLGAAYEVLSNPDKRKTYDRCGEECLKKEGMMDHGGDPFSSFFGDFGFHFGGDGQQQDAPRGADIVMDLYVSLEELYSGNFVEIVRNKPVTKPASGTRKCNCRQEMVTRNLGPGRFQMIQQTVCDECPNVKLVNEERTLEIEVEQGMVDGQETRFVAEGEPHIDGEPGDLIVRVQQMPHPRFLRKNDDLYTNVTISLQDALVGFSMEIKHLDGHLVPVTREKVTWPGARIRKKGEGMPNFENNNLTGNLYITFDVEFPKKDLTEEDKEALKKILDQSSINRIYNGL
binding [1]: binds

B3: CG7872 (protein, UniProt Q9VXT2 1-333)
chain: MRTHGLRLVLLALLPTMALGLLEGLYCGKENCYDVLGVTRESSKSEIGKAYRQLARRYHPDLHRGAEAKAAAETQFKLVATAYEILRDEESRTDYDYMLDNPDAYYAHYYRYYRRRVAPKVDVRVVIVVVLTIVSVIQYYSGWQRYDSAIKYFATVPKYRNQALEIARDEIQEKIQKKGKNRMSKNDQRDELERIIRRVIEEKMDVKGGYAKPTLWDVLWVQLIICPYTILSFIVWHAQWFWRYTVMKQPYGREQKLYLIRRHLGMGQHQFEAQEDKLIEEYLHLKLWKRENFVAWKAEQEEEMKKKLAENPRYKAYRRYMKNHGPGRITFED
binding [1]: no binding

B4: CG6693 (protein, UniProt Q9VGR7 1-299)
chain: MSTLELCEKYFGTRDVYKLMELARGAGEKEVKKAYHKLSLLVHPDRVPEEQKAESTEKFKVLSKLYQVLTDTQKRALYDEQGVIDDDDESESKLSSWLELWSKIFKPITEEDINNYEKEYVESELERTDLKKAYLGGKGCINYLMNHVPFMKVEDEPRIQKIVQDMIASGEVPEYKIFTEEPAAKRKKRHQKYAREFKEAKVIKERLKRRQKEKDDQDLADNGGDLQQMILARRNQRESNFGSLMDRLMEKYGNEDDSDTVDFSAFEKKKKKSKKPAAKQETKPKLNGVKAGRVEKGKN
binding [1]: no binding

B7: DnaJ60 (protein, UniProt P92029 1-217)
chain: MLRLCLPTRAGYVRNFSNDKPRKPETHYEVLNIRNDCSTREVRNAFVQLSKLYHPDVKSNAACPERTARFVQISEAYKTLIKPERRRDYDDSLLWQPSRSDRSPVGETVNPGQAWDVRPNYDPNPGPYYGIRGLKRVSNWQVAVVLMALGFVGALFGFTSVRSSFKLSRQIQDEISAEANSHHAAVVADAQKYGNEEQVRRMVDRMSRSPFNQSSAK
binding [1]: no binding

Now from value to molecule:

binding [1]: binds
Molecule: Hsp70Aa (from UniProt P82910 1-642)

binding [2]: binds
Molecule: human DnaJB6 (from UniProt O75190 1-326)

binding [1]: binds
Molecule: Hsc70-4 (from UniProt P11147 1-651)

binding [1]: no binding
B5: Jdp (protein, UniProt Q9TVP3 1-195)
chain: MSAVDAIINYKRSPNEDFYGLLHCDENSSPEQIQAEYKVLALQYHPDKNSGDKEAEAKFQQLKEAKETLCDPEKRAIYDKWRNSGISMSYKQWLGMKEHVGQVRRYTIAEKVDKESMHWVTPKTKDRMLPETGGAAAQGPGTGAGCSSGGLTAASPNPAHRRASEGGAALYYGSRKGEWGGENTDVANKFRNYEI

binding [1]: no binding
B6: L(2)tid (protein, UniProt Q27237 63-520)
chain: AKDYYATLGVAKNANGKDIKKAYYQLAKKYHPDTNKEDPDAGRKFQEVSEAYEVLSDEQKRREYDTYGQTAENIGRQGGGFPGGGAGGFGPEGFSQSWQFRSSIDPEELFRKIFGEGNFRTNSFDDFADSKFGFGQAQEMVMDLTFAQAARGVNKDVNVNVVDQCPKCAGTKCEPGTKPGRCQYCNGTGFETVSTGPFVMRSTCRYCQGTRQHIKYPCSECEGKGRTVQRRKVTVPVPAGIENGQTVRMQVGSKELFVTFRVERSDYFRREGADVHTDAAISLAQAVLGGTVRVQGVYEDQWINVEPGTSSHHKIMLRGKGLKRVNAHGHGDHYVHVKITVPSAKKLDKKRLALIEAYAELEEDTPGQIHGIANRKDGSKQATAGASEEPGAGAAAKASAAAAGSGASKPGPGAEKSEGKDQWTDNEKTKAKEGGGSGSGQGDGGGGGFISKIKSMFN
